These are yes or no findings as the source states them, for the method shown. For part of these data: Binding seen in cells or lysates may run through a third protein. Some entries that bind do so weakly or less than the wild type. For part of these data: Tags and fused reporters may be left off the sequences shown.
Columns and labels:
[1] = biological target: PKM1-Myc (pyruvate kinase M, isoform 1, wild type) (UniProt P14618); experiment: co-IP; truncated NUDT13 and PKM1 constructs (Figures S7B-E, S11B); cells not told
[2] = biological target: PKM1 241-408 AA region (UniProt P14618); experiment: as above
[3] = biological target: PKM1-Myc (pyruvate kinase M, isoform 1, wild type) (UniProt P14618); experiment: co-IP; exogenous NUDT13-Flag and PKM1-Myc in nuclear extracts from 293T cells (Figure 2H)
[4] = biological target: PKM2 (as tested by co-IP) (UniProt P14618); experiment: co-IP; test of PKM2 with NUDT13; cells and panel not told (Figure 2C-D; Figure S3C)
[5] = biological target: PKM1-Myc (pyruvate kinase M, isoform 1, wild type) (UniProt P14618); experiment: co-IP; 293T cells co-transfected with PKM1-Myc and NUDT13-Flag WT or mutant plasmids (Figures 2C, 4A, 6C, 7C); Olaparib treatment did not affect the interaction (Figure S9O, cells not told)
[6] = biological target: PKM1 in SW480 cells (UniProt P14618); experiment: co-IP; SW480 cells (Figure 2D)
[7] = biological target: PKM2 (as used in in vitro pull-down assays) (UniProt P14618); experiment: pull-down; in vitro reciprocal pull-down assays, Coomassie blue staining (Figure 2E); both purified
[8] = biological target: purified recombinant PKM1 (UniProt P14618); experiment: as above
[9] = biological target: PKM2 (as used in in vitro pull-down assays) (UniProt P14618); experiment: pull-down; in vitro pull-down of N13 peptide with purified PKM1 or PKM2, Coomassie blue staining (Figure 7D); both purified

Chains of the proteins cited; added tags and fusions are not shown. Lines headed by an entry give the natural chain unless they say otherwise; changes in a name come on top. A line that says so, or that is headed by a name, gives the form on record, which may keep a tag or linker.
UniProt P14618: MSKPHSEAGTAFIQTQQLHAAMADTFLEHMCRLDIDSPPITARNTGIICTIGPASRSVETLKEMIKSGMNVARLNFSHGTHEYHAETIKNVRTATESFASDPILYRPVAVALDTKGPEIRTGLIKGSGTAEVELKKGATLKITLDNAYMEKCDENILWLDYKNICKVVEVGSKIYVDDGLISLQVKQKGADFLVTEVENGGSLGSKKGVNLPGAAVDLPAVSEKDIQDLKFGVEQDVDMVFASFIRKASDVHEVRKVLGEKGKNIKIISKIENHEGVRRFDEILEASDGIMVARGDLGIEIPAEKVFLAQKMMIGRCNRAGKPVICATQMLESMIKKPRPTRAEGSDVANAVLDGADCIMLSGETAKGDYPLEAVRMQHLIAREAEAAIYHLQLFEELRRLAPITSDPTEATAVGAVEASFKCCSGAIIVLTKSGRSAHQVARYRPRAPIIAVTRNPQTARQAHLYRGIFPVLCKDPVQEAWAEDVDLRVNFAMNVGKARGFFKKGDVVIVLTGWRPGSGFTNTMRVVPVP
PKM1-Myc (pyruvate kinase M, isoform 1, wild type) (P14618, form named): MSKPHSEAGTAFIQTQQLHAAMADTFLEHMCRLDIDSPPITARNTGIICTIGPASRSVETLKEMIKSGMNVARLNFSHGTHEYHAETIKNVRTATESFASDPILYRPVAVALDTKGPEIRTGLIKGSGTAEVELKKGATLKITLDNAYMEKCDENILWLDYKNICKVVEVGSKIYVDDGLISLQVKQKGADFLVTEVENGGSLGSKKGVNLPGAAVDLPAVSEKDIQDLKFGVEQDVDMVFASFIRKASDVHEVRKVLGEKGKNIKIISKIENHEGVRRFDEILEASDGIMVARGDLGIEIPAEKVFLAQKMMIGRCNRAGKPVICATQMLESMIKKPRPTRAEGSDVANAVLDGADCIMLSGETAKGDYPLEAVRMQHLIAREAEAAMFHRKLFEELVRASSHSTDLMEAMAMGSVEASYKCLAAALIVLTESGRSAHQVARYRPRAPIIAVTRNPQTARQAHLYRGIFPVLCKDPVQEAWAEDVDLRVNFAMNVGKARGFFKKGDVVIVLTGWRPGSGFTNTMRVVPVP
PKM1 241-408 AA region (P14618, form named): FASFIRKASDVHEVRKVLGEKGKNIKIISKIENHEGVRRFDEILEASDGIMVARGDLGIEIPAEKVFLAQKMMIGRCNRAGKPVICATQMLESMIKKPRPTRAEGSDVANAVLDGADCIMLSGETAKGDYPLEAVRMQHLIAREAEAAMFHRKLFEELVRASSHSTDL

B1: Nudix hydrolase (NH) domain of NUDT13 (domain or fragment, UniProt Q86X67 196-323)
chain: PQMAPVAITLVSDGTRCLLARQSSFPKGMYSALAGFCDIGESVEETIRREVAEEVGLEVESLQYYASQHWPFPSGSLMIACHATVKPGQTEIQVNLRELETAAWFSHDEVATALKRKGPYTQQQNGTF
B1 was tested, and the binding [1] was “binds”.

B2: NUDT13-Flag (Nudix hydrolase 13, wild type) (protein, UniProt Q86X67 21-352)
chain: STYVTKTRYLFELKEDDDACKKAQQTGAFYLFHSLAPLLQTSAHQYLAPRHSLLELERLLGKFGQDAQRIEDSVLIGCSEQQEAWFALDLGLDSSFSISASLHKPEMETELKGSFIELRKALFQLNARDASLLSTAQALLRWHDAHQFCSRSGQPTKKNVAGSKRVCPSNNIIYYPQMAPVAITLVSDGTRCLLARQSSFPKGMYSALAGFCDIGESVEETIRREVAEEVGLEVESLQYYASQHWPFPSGSLMIACHATVKPGQTEIQVNLRELETAAWFSHDEVATALKRKGPYTQQQNGTFPFWLPPKLAISHQLIKEWVEKQTCSSLPA
In the case of B2, the binding [2] is reported as “binds”, the binding [3] is reported as “binds” and the binding [4] is reported as “no binding”. For the same binder, the binding [5] was “binds”.

B3: NUDT13-Flag EQ mutant (E245/248/249Q) (protein, UniProt Q86X67 21-352)
chain: STYVTKTRYLFELKEDDDACKKAQQTGAFYLFHSLAPLLQTSAHQYLAPRHSLLELERLLGKFGQDAQRIEDSVLIGCSEQQEAWFALDLGLDSSFSISASLHKPEMETELKGSFIELRKALFQLNARDASLLSTAQALLRWHDAHQFCSRSGQPTKKNVAGSKRVCPSNNIIYYPQMAPVAITLVSDGTRCLLARQSSFPKGMYSALAGFCDIGESVEETIRRQVAQQVGLEVESLQYYASQHWPFPSGSLMIACHATVKPGQTEIQVNLRELETAAWFSHDEVATALKRKGPYTQQQNGTFPFWLPPKLAISHQLIKEWVEKQTCSSLPA
With B3 the binding [5] was “binds”.

B4: NUDT13 residues 206-260 (domain or fragment, UniProt Q86X67 206-260)
chain: VSDGTRCLLARQSSFPKGMYSALAGFCDIGESVEETIRREVAEEVGLEVESLQYY
In the case of B4, the binding [1] is reported as “binds”.

B5: NUDT13 in SW480 cells (protein, UniProt Q86X67 21-352)
chain: STYVTKTRYLFELKEDDDACKKAQQTGAFYLFHSLAPLLQTSAHQYLAPRHSLLELERLLGKFGQDAQRIEDSVLIGCSEQQEAWFALDLGLDSSFSISASLHKPEMETELKGSFIELRKALFQLNARDASLLSTAQALLRWHDAHQFCSRSGQPTKKNVAGSKRVCPSNNIIYYPQMAPVAITLVSDGTRCLLARQSSFPKGMYSALAGFCDIGESVEETIRREVAEEVGLEVESLQYYASQHWPFPSGSLMIACHATVKPGQTEIQVNLRELETAAWFSHDEVATALKRKGPYTQQQNGTFPFWLPPKLAISHQLIKEWVEKQTCSSLPA
In the case of B5, the binding [6] is reported as “binds”.

B6: purified NUDT13 (recombinant hNUDT13) (protein, UniProt Q86X67 21-352)
chain: STYVTKTRYLFELKEDDDACKKAQQTGAFYLFHSLAPLLQTSAHQYLAPRHSLLELERLLGKFGQDAQRIEDSVLIGCSEQQEAWFALDLGLDSSFSISASLHKPEMETELKGSFIELRKALFQLNARDASLLSTAQALLRWHDAHQFCSRSGQPTKKNVAGSKRVCPSNNIIYYPQMAPVAITLVSDGTRCLLARQSSFPKGMYSALAGFCDIGESVEETIRREVAEEVGLEVESLQYYASQHWPFPSGSLMIACHATVKPGQTEIQVNLRELETAAWFSHDEVATALKRKGPYTQQQNGTFPFWLPPKLAISHQLIKEWVEKQTCSSLPA
In the case of B6, the binding [7] is reported as “no binding” and the binding [8] is reported as “binds”.

In the case of GFCDIGESVEETIRREVAEEVGL (peptide, UniProt Q86X67 230-252) [N13 peptide (mimic peptide of NUDT13 230–252 AA)], the binding [9] is reported as “no binding”.

B7: NUDT13-Flag △230–252 (protein, UniProt Q86X67)
chain: STYVTKTRYLFELKEDDDACKKAQQTGAFYLFHSLAPLLQTSAHQYLAPRHSLLELERLLGKFGQDAQRIEDSVLIGCSEQQEAWFALDLGLDSSFSISASLHKPEMETELKGSFIELRKALFQLNARDASLLSTAQALLRWHDAHQFCSRSGQPTKKNVAGSKRVCPSNNIIYYPQMAPVAITLVSDGTRCLLARQSSFPKGMYSALAEVESLQYYASQHWPFPSGSLMIACHATVKPGQTEIQVNLRELETAAWFSHDEVATALKRKGPYTQQQNGTFPFWLPPKLAISHQLIKEWVEKQTCSSLPA
For B7, the binding [5] was “no binding”.

Source: article PMC11967829
